Data on 60 compounds can be found in PubChem BioAssay AID504374 (National Center for Advancing Translational Sciences (NCATS), 2011).

About 100 (6.7%) of roughly 1,500 compounds were called active. Not shown: some 7% with an inconclusive outcome. Calls follow the shape of the dose curve; as a rule, active = well fitted inhibition curve with a large enough effect; inconclusive = small, poorly fitted or top-dose-only effect, or effect the other way; inactive = flat fitted curve, though single readings scatter. Some of the results follow.
% is scaled to controls: 0 for no effect and ±100 for the full control effect; potency is read from the fitted curve at half-maximal effect.

The experiment concerns the target Runt-related transcription factor 1 (Homo sapiens) + Core-binding factor subunit beta (Homo sapiens) (UniProt Q01196+Q13951). The experiment in a line: qHTS Assay for Compounds Blocking the Interaction Between CBF-beta and RUNX1 for the Treatment of Acute Myeloid Leukemia: Hit Validation. Also: nearly all actives have a fitted effect of over 60% in size. To be noted: AlphaScreen CBFb-His/RUNX1-biotin binding; series mostly up to 59.8 µM; activity, negative = inhibition: at the top concentration. The text has this: NIH Chemical Genomics Center [NCGC]
UniProt Q01196, sequence (Q01196 whole entry, looked up): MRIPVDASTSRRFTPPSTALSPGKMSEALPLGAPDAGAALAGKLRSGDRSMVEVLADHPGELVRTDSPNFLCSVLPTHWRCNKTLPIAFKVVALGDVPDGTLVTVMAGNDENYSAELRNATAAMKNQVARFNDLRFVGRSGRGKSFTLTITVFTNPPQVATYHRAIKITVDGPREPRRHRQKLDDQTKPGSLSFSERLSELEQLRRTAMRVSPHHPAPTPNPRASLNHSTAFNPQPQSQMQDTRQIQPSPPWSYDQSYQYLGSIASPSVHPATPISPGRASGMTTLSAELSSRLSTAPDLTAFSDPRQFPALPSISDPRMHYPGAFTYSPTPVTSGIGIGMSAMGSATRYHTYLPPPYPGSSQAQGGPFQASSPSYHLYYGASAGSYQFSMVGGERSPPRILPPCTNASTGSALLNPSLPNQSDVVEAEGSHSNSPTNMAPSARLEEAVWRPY
UniProt Q01196, sequence (Q13951 whole entry, looked up): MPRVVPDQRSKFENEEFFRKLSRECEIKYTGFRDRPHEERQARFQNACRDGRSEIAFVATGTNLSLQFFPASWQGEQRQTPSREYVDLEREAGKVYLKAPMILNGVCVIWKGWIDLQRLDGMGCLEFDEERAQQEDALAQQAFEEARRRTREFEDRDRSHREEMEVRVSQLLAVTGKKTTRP
NIH Molecular Libraries Probe Production centers Network [MLPCN]
Assay Submitter (PI): Paul Liu
Core Binding Factor (CBF) abnormalities are associated with 20-25% of all acute myeloid leukemias (AML), of which 5-10% are further sub classified as acute myelomonocytic leukemia with eosinophilia, also known as M4Eo in the FAB classification scheme. This subtype of leukemia is usually associated with chromosome 16 inversion (p13:q22). Chromosome 16 inversion results in formation of the fusion oncogene CBFB-MYH11, which encodes the fusion protein CBF-beta-SMMHC.
It has been hypothesized that the interference of CBF-beta and RUNX1 binding could have therapeutic implications for patients with CBF mediated leukemias. We developed a CBF-beta and RUNX1 binding assay in AlphaScreenTM format and optimized it for high throughput screening to search for inhibitors. The goal of this project is to screen MLPCN's compound collection (MLSMR) for identifying the inhibitors of the interaction between CBF-beta and RUNX1 proteins as research probes. If these probes work well in the animal models, the ultimate goal of this project is to development a new drug treatment for this disease.
This assay can not be used to assess how apparent inhibitors interfere with protein binding, and whether inhibitors specifically bind to either protein. Disruption of this protein-protein interaction, through any mechanism, is the intended target activity.
The present data set was run to confirm the activity of hits from the primary screen.
NCGC Assay Protocol Summary:
Step, Parameter, Description
(1) Reagent, 3 uL CBFb-His/RUNX1-biotin mix incubated together for 20 minutes at room temperature (30 nM each)
(2) Compound or control, 23 nL compound stock solution
(3) Incubation, 15 minutes at Room temperature
(4) Reagent, 1 uL 50 ng each of beads (Nickel beads and streptavidin beads)
(5) Incubation, 90 minutes at Room temperature
(6) Detection, Excitation=365 nm Emission=440 nm, Envision reader in AlphaScreenTM mode
Keywords: MLSMR, MLPCN, NIH Roadmap, qHTS, NCGC, Core binding factor, CBF, CBF-beta, Acute myeloid leukemia
For `O=c1c(-c2cc(O)c(O)c(O)c2)coc2cc(O)c(O)c(O)c12`, the Potency was active: 0.447 µM.
In the case of `Cn1nc2c3ccccc3n(Cc3ccccc3)c2nc1=S`, the “activity, negative = inhibition” value is inactive: -12.9%.
The same measure, in the same setting: the figure for `Cc1nc([N+](=O)[O-])cn1C(C)C` is inactive: -11.3%; for `NNC(=O)c1ccc(Cn2cc(Br)cn2)o1` it is inactive: -4.5%; for `O=C(O)C1(c2ccccc2)CCN(S(=O)(=O)c2ccc(Cl)s2)CC1` it is inactive: -0.0237%.
Same read-out and setting: to `CCOc1ccc(N2C(=O)CC(NNc3nc4ccccc4s3)C2=O)cc1` (stereo not given) belongs inactive: 5.71%; to `COC(=O)c1cccc(NC(=O)C(C)(C)C)c1`, inactive: -2.68%.
Same read-out and setting: to `Cc1ccc(/C=C/c2nc3ccccc3c(=O)[nH]2)cc1` belongs inactive: 1.17%.
`Cn1c(=O)c([N+](=O)[O-])c(NCc2ccccc2Cl)c2ccccc21`: the “activity, negative = inhibition” value was inactive: -12.8%.
Same read-out and setting: to `COc1cccc(CC(=O)NNC(=O)c2c(-c3ccccc3)noc2C)c1` belongs inactive: -3.55%; to `COc1ccc(C(=O)NC(=S)Nc2ccc(CN3CCOCC3)cc2)cc1`, inactive: -11.1%; to `Clc1cccc(Cl)c1Cn1nnc(N2CCCC2)n1`, inactive: 0.0502%.
Same read-out and setting: the figure for `NNC(=O)c1ccc(Cn2cccn2)o1` is inactive: -3.9%; for `COc1ccc(NC(=O)Nc2nc3ccccc3s2)cc1` it is inactive: 6.08%.
Still for that read-out and setting: the figure for `O=C(CN1C(=O)c2ccccc2S1(=O)=O)c1ccc2c(c1)OCCO2` is inactive: -13.4%; for `Cc1ccccc1Nc1nc(N)nc(CCl)n1` it is inactive: -29.2%.
On to `O=C(O)/C(=C\c1ccccc1)c1ccccc1`, for which the “activity, negative = inhibition” value was inactive: -0.0307%.
Same read-out and setting: to `CCCSc1cc(Cl)nc(N)n1` belongs inactive: -2.32%; to `CC(C)(C)OC(=O)N1CCC[C@H]1c1nnc(SCc2ccccc2)o1`, inactive: -4.21%.
Same read-out and setting: the figure for `Cc1ccc(-n2[nH]c(C)c(/C=N/c3cccc(C)n3)c2=O)cc1` is inactive: 3.64%; for `Cc1ccc(C(CCNC(C)c2cccs2)c2ccco2)cc1` (stereo not given) it is inactive: 10%.
The same measure, in the same setting: the figure for `O=[N+]([O-])c1ccc(C2CC(c3ccccc3)=Nc3ccccc3S2)cc1` (stereo not given) is inactive: -19.8%.
On to `CCNC(=S)NNc1ccccc1`, for which the “activity, negative = inhibition” value is inactive: -8.08%.
On the same count and under the same terms, to `CCNC(=S)N1N=C2c3ccccc3CCC2C1c1ccc(F)cc1` (stereo not given) belongs inactive: 7.45%; to `CN(c1cnn(-c2ccccc2)c(=O)c1Cl)n1cccc1`, inactive: -0.854%.
Still for that read-out and setting: the figure for `O=[N+]([O-])c1ccccc1CSc1ccccn1` is inactive: 1.85%; for `Cn1ncc2c(c(SCc3ccc(Cl)cc3Cl)nn2C)c1=O` it is inactive: -2.46%.
The same measure, in the same setting: to `COc1ccc(CCN(C)CCC(=O)Nc2cccc(C)c2)cc1OC` belongs inactive: -4.23%; to `O=C(CCl)NCCCN(C(=O)C(Cl)Cl)c1ccc([N+](=O)[O-])cc1`, inactive: -1.35%.
On to `CCOc1ccc(/C=C2\NC(=S)NC2=O)cc1`, for which the “activity, negative = inhibition” value is inactive: 3.62%.
Take `CCOC(=O)/C(C#N)=C/Nc1ccsc1C(C)=O`: the “activity, negative = inhibition” value was inactive: 0.205%.
Same read-out and setting: the figure for `Cn1c(C(=O)c2ccncc2)cc2ccccc21` is inactive: -2.19%; for `O=C(CC1NCCNC1=O)NC1Cc2ccccc2C1` (stereo not given) it is inactive: 9.2%.
Regarding `O=[N+]([O-])c1cc2c(cc1/C=N/n1c(-c3ccccn3)n[nH]c1=S)OCO2`, the Potency was active: 10 µM.
Take `CCOC(=O)C1=C(C)NC(C)=C(C(=O)OCC)C1`: the “activity, negative = inhibition” value is inactive: 0.11%.
The same measure, in the same setting: the figure for `O=C(CN1C(=O)c2ccccc2S1(=O)=O)c1ccc2c(c1)OCCCO2` is inactive: -4.48%; for `CCOC(=O)NC1c2ccccc2Oc2ccccc21` it is inactive: 3.42%.
Take `COc1ccc2[nH]c(-c3ccccc3)cc2c1`: the “activity, negative = inhibition” value is inactive: -8.62%.
In the case of `COc1cc2c(cc1OC)C1(C)N(CC2)C(C(C)=O)=NN1c1ccc(Cl)cc1` (stereo not given), the “activity, negative = inhibition” value was inactive: 11.8%.
Consider `O=C(O)/C=C/C(=O)Nc1ccc(-n2ccc(C(F)(F)F)n2)cc1`, for which the “activity, negative = inhibition” value is inactive: -7.33%.
The same measure, in the same setting: the figure for `CCOC(=O)N1CCC(NS(=O)(=O)c2ccccc2)CC1` is inactive: -16.1%.
For the compound `COc1ccc(CN(Cc2cccn2C)S(=O)(=O)c2ccc(F)cc2)cc1`, the “activity, negative = inhibition” value is inactive: -9.03%.
With `CC1CCc2c(sc(NC(=O)Cn3nc(C(=O)O)c4ccccc4c3=O)c2C#N)C1` (stereo not given), the “activity, negative = inhibition” value is inactive: -1.1%.
The same measure, in the same setting: to `O=C(O)C1CCc2sc3[nH]c(=S)n(-c4ccccc4)c(=O)c3c21` (stereo not given) belongs inactive: -5.37%; to `CCN(CC)CCN1C(=O)C(=O)/C(=C(/O)c2ccc3c(c2)CC(C)O3)C1c1ccc(OC)cc1` (stereo not given), inactive: -3.3%; to `CCCCNC(=O)Nc1ccccc1CC`, inactive: -3.42%.
Same read-out and setting: to `Cc1ccc(CN(C(=O)c2cc(=O)c3cc(C)cc(C)c3o2)C2CCS(=O)(=O)C2)cc1` (stereo not given) belongs inactive: 4.59%; to `CC(C)(C)OC(=O)N1CCCN(C(=O)Nc2cccc(Cl)c2)CC1`, inactive: -3.39%.
On the same count and under the same terms, the figure for `COC(=O)c1[nH]c2ccccc2c1NC(=O)c1c(F)cccc1F` is inactive: -3.97%.
Turning to `CCCc1cc(NCc2ccccn2)n2nc(C)c(-c3ccccc3)c2n1`, the “activity, negative = inhibition” value was inactive: 7.5%.
On the same count and under the same terms, the figure for `COc1ccc(C(=O)CN2C(=O)c3ccccc3C2=O)cc1` is inactive: -0.648%.
Same read-out and setting: the figure for `CCCc1nc2sc3ccccc3c(=O)c2c(=O)n1Cc1ccc(OC)cc1` is inactive: 4.52%; for `CCOC(=O)c1cnc2c(C(=O)OCC)cnn2c1N` it is inactive: -0.993%.
Still for that read-out and setting: the figure for `Cc1cc(C(=O)NNS(=O)(=O)c2cccc(Cl)c2)nn1C(C)(C)C` is inactive: 2.17%; for `O=[N+]([O-])c1sccc1CS(=O)(=O)c1ccccc1` it is inactive: 4.18%.
For the compound `CC(C)(C)C1CCC(OC(=O)CN2CCCCC2)CC1` (stereo not given), the “activity, negative = inhibition” value was inactive: -2.8%.
Still for that read-out and setting: the figure for `Nc1cc(Nc2ccc(Br)cc2)nc(N)n1` is inactive: -6.85%.
Same read-out and setting: to `O=C(N/N=C/c1ccncc1)c1cnccn1` belongs inactive: -5.76%; to `Cc1ccnc(SCCn2c(N3CCN(C)CC3)nc3c2c(=O)n(C)c(=O)n3C)n1`, inactive: 0.846%; to `CCC(C)NC(=S)Nc1ccccc1` (stereo not given), inactive: 1.69%.
